# Measured values reported in PubChem BioAssay (NCATS).
# Inconclusive results, whose numbers are uncertain, are shown with a selection of clear calls. No potency is given beside an inconclusive call; the fits are too rough. Calls of active or inactive are those of the source. Calls follow the shape of the dose curve; as a rule, active = well fitted curve in the direction sought with a large enough effect; inconclusive = small, poorly fitted or top-dose-only effect, or another doubt; inactive = no such curve, though single readings can be large; an effect the other way counts as inactive or inconclusive.
# Assays:
# [1] = BET inhibitor-based combinations targeting novel dependencies in MECOM-rearranged (r) AML: OCI-AML3 cell line (AID 2202232); conditions: CellTiter-Glo luminescence, 48 h; Potency: OCI-AML3 viability; viability (% of control): at 46 µM (top of the series); also: nearly all actives have a fitted effect of over 35% in size;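 as to viability (% of control): plate controls were DMSO vehicle wells for no effect and wells without cells for full effect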
# Procedure, shortened: (§1)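 Luminescent ATP readout (CellTiter-Glo) after 48 hr drug exposure gives viability. Curves span 11 concentrations and are normalized to DMSO and empty wells. Activity is reported as area under the curve and its Z-transform within each cell line.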
# [2] = BET inhibitor-based combinations targeting novel dependencies in MECOM-rearranged (r) AML: MV-4-11 cell line (AID 2202233); conditions: MV-4-11 AML viability, CellTiter-Glo luminescence, 48 h; viability, % of control: at 46 µM (top of the series) unless noted; also: nearly all actives have a fitted effect of over 45% in size;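 as to viability, % of control: plate controls were DMSO for no effect and blank wells for full effect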
# Procedure, shortened: (§2)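 Luminescent ATP readout (CellTiter-Glo, 15 min at room temperature) after 48 hr drug exposure gave viability. Dose-response curves, normalized to DMSO and empty-well controls, were summarized as area under the curve and its mean-centred Z-score.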
# [3] = BET inhibitor-based combinations targeting novel dependencies in MECOM-rearranged (r) AML: HNT-34 cell line (AID 2202234); also: nearly all actives have a fitted effect of over 35% in size;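 as to viability (% of control): plate controls were vehicle wells for no effect and cell-free wells for full effect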
# Procedure, shortened: as §2
# [4] = BET inhibitor-based combinations targeting novel dependencies in MECOM-rearranged (r) AML: UCSD-AML1 cell line (AID 2202235); conditions: UCSD-AML1 AML cells viability, CellTiter-Glo, 48 h; viability (% of control): at 46 µM (top of the series); also: nearly all actives have a fitted effect of over 40% in size;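 as to viability (% of control): plate controls were DMSO vehicle wells for no effect and blank wells for full effect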
# Procedure, shortened: as §2
# [5] = BET inhibitor-based combinations targeting novel dependencies in MECOM-rearranged (r) AML: AML-191 cell line (AID 2202236; also: nearly all actives have a fitted effect of over 35% in size)
# Procedure, shortened: as §1
# [6] = BET inhibitor-based combinations targeting novel dependencies in MECOM-rearranged (r) AML: AML-194 cell line (AID 2202237; also: nearly all actives have a fitted effect of over 40% in size;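 as to viability (% of control): plate controls were vehicle wells for no effect and wells without cells for full effect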)
# Procedure, shortened: as §1
# Potency is read from the fitted curve at half-maximal effect; tags tell the direction and shape of the fitted curve.
Structure (SMILES),Potency [1],Potency [2],Potency [3],viability (% of control) [1],Potency [4],Potency [5],Potency [6]
Clc1ccc(CCC(Cn2ccnc2)Sc2c(Cl)cccc2Cl)cc1 (stereo not given),inactive,"inconclusive [inhibitor, partial curve]","inconclusive [inhibitor, single point]",,,,
CCN(CCO)CCCC(C)Nc1ccnc2cc(Cl)ccc12 (stereo not given),,"inconclusive [inhibitor, partial curve, poor fit]","inconclusive [inhibitor, single point]",inactive: 48.6% [at 5.12 µM],,,
O=C(NO)c1cnc(NC2(c3cccc(F)c3)CCCCC2)nc1,"inconclusive [inhibitor, partial curve]","inconclusive [inhibitor, partial curve, poor fit]","inconclusive [inhibitor, full curve]",,"inconclusive [inhibitor, single point]",,
COC(=O)[C@H]1[C@@H](O)[C@@]2(O)c3c(OC)cc(O[C@@H]4O[C@@H]([C@@H](O)CO)CO[C@H]4OC)cc3O[C@@]2(c2ccc(OC)cc2)[C@@H]1c1ccccc1,"inconclusive [inhibitor, partial curve, poor fit]","inconclusive [inhibitor, full curve, poor fit]","inconclusive [inhibitor, partial curve]",,"inconclusive [inhibitor, partial curve]",,
CCOC(=O)C1=C[C@@H](OC(CC)CC)[C@H](NC(C)=O)[C@@H](N)C1,inactive,inactive,inactive,,,,
CCOC(=O)c1c(C)n(C)c2ccc(O)cc12,"inconclusive [inhibitor, partial curve, poor fit]","inconclusive [inhibitor, single point]",inactive,,inactive,,
CC(C)n1cc(-c2ccc3c(c2)N(C)CC3)c2c(NS(=O)(=O)c3ccn(C)n3)ccnc21,inactive,inactive,"inconclusive [inhibitor, partial curve, poor fit]",,,,
Nc1ccc(F)cc1NC(=O)c1ccc(CNC(=O)/C=C/c2cccnc2)cc1,active: 4.17 µM,"inconclusive [inhibitor, full curve, poor fit]",active: 4.17 µM,,,,
COc1ccc2c(c1)c(CC(=O)O)c(C)n2C(=O)c1ccc(Cl)cc1,inactive,inactive,inactive,,,,
COc1ccc(C2(C#N)CCC(C(=O)O)CC2)cc1OC1CCCC1 (stereo not given),inactive,"inconclusive [inhibitor, partial curve, poor fit]",inactive,,,,
C=C1CCC[C@]2(C)C=C3OC(=O)C(C)=C3C[C@@H]12,"inconclusive [inhibitor, full curve, poor fit]","inconclusive [inhibitor, partial curve, poor fit]",inactive,,,,
CN1C(=O)[C@@H](NC(=O)c2cc(Cc3ccccc3)on2)COc2ccccc21,inactive,"inconclusive [inhibitor, single point]","inconclusive [inhibitor, single point]",,inactive,,
NC(=O)c1ccc2[nH]ccc2c1,inactive,inactive,inactive,,,,
CCCNS(=O)(=O)Nc1ncnc(OCCOc2ncc(Br)cn2)c1-c1ccc(Br)cc1,inactive,"inconclusive [inhibitor, single point]","inconclusive [inhibitor, single point]",,"inconclusive [inhibitor, single point]","inconclusive [inhibitor, single point]",inactive
CCCCCCCCCCCCCCCC(=O)O[C@H]1[C@@H](O)[C@@H](O)[C@@H]([C@H](NC(=O)[C@@H]2C[C@@H](CCC)CN2C)[C@H](C)Cl)O[C@@H]1SC,"inconclusive [inhibitor, full curve, poor fit]",active: 16.6 µM,"inconclusive [inhibitor, single point]",,"inconclusive [inhibitor, single point]","inconclusive [inhibitor, single point]","inconclusive [inhibitor, single point]"
